Experimental data: PMC2196190

Molecular target: hBUBR1 (human (endogenous in HeLa)) (UniProt O60566)
Assay: SEC

Sequence of UniProt O60566 (O60566 whole entry): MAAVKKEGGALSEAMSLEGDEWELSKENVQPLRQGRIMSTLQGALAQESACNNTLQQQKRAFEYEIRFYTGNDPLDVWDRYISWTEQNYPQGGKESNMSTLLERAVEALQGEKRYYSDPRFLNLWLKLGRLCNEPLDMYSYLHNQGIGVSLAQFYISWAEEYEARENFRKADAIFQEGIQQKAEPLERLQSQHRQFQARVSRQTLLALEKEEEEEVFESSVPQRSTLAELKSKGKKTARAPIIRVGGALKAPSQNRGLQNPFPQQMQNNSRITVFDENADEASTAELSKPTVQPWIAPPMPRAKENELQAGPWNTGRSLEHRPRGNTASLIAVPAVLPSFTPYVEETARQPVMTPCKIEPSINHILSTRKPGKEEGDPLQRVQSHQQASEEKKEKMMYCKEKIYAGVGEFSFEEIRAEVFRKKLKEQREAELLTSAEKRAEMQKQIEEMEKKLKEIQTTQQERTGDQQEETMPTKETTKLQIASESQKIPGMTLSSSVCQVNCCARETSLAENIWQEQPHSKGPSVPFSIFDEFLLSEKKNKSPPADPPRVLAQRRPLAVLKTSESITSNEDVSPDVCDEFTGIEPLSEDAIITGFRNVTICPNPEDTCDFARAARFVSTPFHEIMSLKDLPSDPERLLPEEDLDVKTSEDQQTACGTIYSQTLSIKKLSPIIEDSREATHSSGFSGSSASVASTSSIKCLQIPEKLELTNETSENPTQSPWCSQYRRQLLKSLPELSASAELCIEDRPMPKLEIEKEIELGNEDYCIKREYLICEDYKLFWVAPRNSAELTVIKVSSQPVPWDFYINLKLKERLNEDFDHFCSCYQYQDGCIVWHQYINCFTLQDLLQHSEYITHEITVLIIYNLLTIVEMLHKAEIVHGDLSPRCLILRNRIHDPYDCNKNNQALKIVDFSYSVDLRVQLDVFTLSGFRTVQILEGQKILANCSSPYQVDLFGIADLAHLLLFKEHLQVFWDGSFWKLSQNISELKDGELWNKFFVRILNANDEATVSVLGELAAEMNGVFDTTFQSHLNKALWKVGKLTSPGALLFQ

MAD2 (a stretch of the chain, chain not printed) (natural protein; other documents disagree on this pair)
percent of total MAD2 that comigrates with the MCC and the APC/C: < 5 % of total
